Test results reported in the RNAGym collection of RNA variant scans (doi:10.1073/pnas.2313332121).
Variants at the floor of the assay are shown more often than the library holds them.

B1: TPR 5TU (parent)
chain: GGAUCUUCUCGAUCUAACAAAAAAGACAAAUCUGCCACAAAGCUUGAGAGCAUCUUCGGAUGCAGAGGCGGCAGCCUUCGGUGGCGCGAUAGCGCCAACGUUCUCAACUAUGACACGCAAAACGCGUGCUCCGUUGAAUGGAGUUUAUCAUG

Variants of: B1
Experiment: polymerase ribozyme fitness, log enrichment relative to wild type (log ratio); higher = more active; in vitro selection for triplet polymerase activity
Summary of the method: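 After PCR construction and transcription, each subunit's mutant library from a heterodimeric triplet polymerase ribozyme was annealed with a biotinylated primer, the partner subunit and triplets. Incubation was frozen, at −7 °C, and extended constructs were gel-excised, bound to streptavidin beads and amplified by RT-PCR, in one selection round done in triplicate. Fitness is the logarithm of a genotype's enrichment divided by that of the wild type, from inverse-variance-weighted replicate averages of Illumina-sequenced inputs and outputs. The base of the logarithm is 2, and genotypes needed ≥10 input reads and ≥1 read per output.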

Polymerase ribozyme fitness (log ratio), -3.82:
U7C A41C C87U G126A
U7G A20C U56G U146G

Polymerase ribozyme fitness (log ratio), -2.22:
U7G

Polymerase ribozyme fitness (log ratio), -3.52:
U7C U15G A41U A52G C96A

Polymerase ribozyme fitness (log ratio), ≤ -4.2:
U7A G84C C132U U135C U146G
U7A G94A C103G A150C
U7A U13C A17U C43A G59C C95A C103G C123U
U7A U13G G71C
U7A U15A A30G A41U C72U C79A G84A U90G C96U C118U U146A
U7A U31A C38A G68U A73U G86U C93U
U7A U44A G67C C69G U82G C93U C114G G141C
U7A U44A G94C G133C G141C
U7A U45C G50U G83A A89U G94C A115U G141A
U7A U55A G84U
U7A U78A G84U A107U U134A
U7A U102A U109G G117A
U7C A16C U33G G80U G81A A91G G141C
U7C A17G A40G U44A C79A A110C
U7C A17G C72U G86A C95A A97G A98U U104A A122U
U7C A17U U44A G83C A113G U144C
U7C A19U G83C U127G
U7C A20C A28C
U7C A23U C87A A89G A115U U134A
U7C A28C U55A U56A G67C G94U G140C A147U
U7C A28U C43U G62A G83A A89G U102C A115U
U7C A29U C57U C95G
U7C A29U G50C A52U G83C G124C A138G
U7C A37C G67C C87U
U7C A39G C85G C105A A107U
U7C A40G C54U C76G C79U C96U C123U U135G U151A
U7C A40U C76U U101G A122G A147U
U7C A40U G71A C93G A150C
U7C A41U G58C C87G C132A
U7C A49C C57A G84U G136U
U7C A49C C57A G88A A89C A107U
U7C A49G A52G G81A G84U
U7C C8A A17G G83C A106G U139C
U7C C8A A29C U56C U134A
U7C C8G A30U C36A G71A C95G G126A
U7C C10G A26U G34U G84A A142U
U7C C10G C69U U90A U135A A138G U139A
U7C C10G U15G G65A C85G G86U G141A U144C
U7C C10U A40C C85A A89C G100A C116A
U7C C10U A40U U53A C93G C99U
U7C C18A A20U A30U G48C C51U C95A U101C
U7C C27G C57G G88C G124A U134G
U7C C32G A40C C54G U77C A138G
U7C C38U A47C U82G G83C C105G U127G C132G
U7C C38U C87A A122U
U7C C54G C76U C79G G88C C108U G140C
U7C C54G G86C C96U A98G G124C
U7C C54U C85G A115C
U7C C57A C85A
U7C C72U C75A A89U U109A A119U
U7C C79U G92U C105U
U7C C85U C87G C93G C99G A137U G140A
U7C C87U G88U U104G
U7C G11A C27G A47G C63U C93A A110C
U7C G11A G42A G46C C51G G68A C87U G88A G133C
U7C G25A A47U U90C C95U C108G C129G U139A U144G
U7C G25U A30G C72A U127C A137U
U7C G25U A39C G84U C85A U148A
U7C G48U G84A G117C
U7C G50C C51U C87U G152U
U7C G50U C87A U90A A106C
U7C G62A C63U A66C C93U
U7C G88A G92C
U7C U13A C32G A91C
U7C U31A G46A G59C C85G C118U
U7C U33G C38U C85A
U7C U45A A64G C76U G83A C95A G126U U130C
U7C U45A G46A C57G A66G C85A
U7C U53G C93G C116G G124U G141A U148G
U7C U53G G86C A106G A150C
U7G A12U A73C A120U
U7G A16G A23U G50A C85U C93G C114A U144G
U7G A16G G62A A73U C95U C118U
U7G A16U A28C G62C G86U C95U A110U
U7G A17C A24U A52G A64G C72G C85U G88U G92U C93G A119U
U7G A17G A28U U31A G59C C95G C132G G140U
U7G A17U C51U G58C C75A C85G A115U
U7G A19C A21G G80C G83U A122U G136A
U7G A19C A66G G67A C93A G141C
U7G A19G A47G G74C C87A A98U
U7G A19U A23U A28G C32A C54U U56A A113C G126U
U7G A20C C51U A52C U56A G86A C123U C131G U148A
U7G A20U G59U A60G U61A G117U C123U U145A
U7G A21U C54A A66C A91C G136A
U7G A22G G74U C85A G126U
U7G A22G G74U C85A G126U U144A
U7G A22U A23C A52U C87U C132U
U7G A22U C43U C93A A142G
U7G A23G A30U C38U C85G A119U
U7G A23G G67U
U7G A24C C43A A47G C75U C85A G86A C103G
U7G A24U A49G G67C G68C C87U A89C G126A G143A C149G
U7G A24U C57U G83A G88C A107U U111G U134A A137C G140C G143C
U7G A26C U44A G74C A115C
U7G A26U G50C G74C G94C C116A C129U A142U
U7G A26U U56A G59U C75G G84U G94U U130G U146C
U7G A28C C54U U56C U82G C85A C108U A115C
U7G A28G A30U C57A G94U U139C
U7G A28U A41U C57A C87G
U7G A30G A73U G92U U144C
U7G A30G A91C
U7G A37C A60C A73U C96A G128U
U7G A37C C95G
U7G A39C C85G U111G A119G C123A
U7G A47C U55G U90G C93U C95G
U7G A47G U77A
U7G A49C A64C G68U G92U
U7G A49C C51A C57G G83A A106G A107C C118U C123G C129G A150G
U7G A49G A52G U55A G84C U90G G100U A113G
U7G A60G U90C C93G C125U G136A
U7G A64U G84A G86U A110C A138G C149U
U7G A89U U135C G141C
U7G C8A A20U A23U C35G U55G C69A G71A G86A A113G
U7G C8A G46C C63U G83C C85G C114G C149A
U7G C8G G71C U82C G86U C87U G112A A115C
U7G C10A G34A G84A A98U G124C
U7G C10G A19U C85G A98G C105A G136U U144C
U7G C10G C36U G67A C125U G141C C149G
U7G C10G U13C A23U G25C A29U C43U C57U C75U G80A C95G U101G G136C G143A
U7G C10U C35U A64G C96A C129A
U7G C10U U15C A16G C18A A29G G59C C85G C116U
U7G C14A A60G U82G A91U G92C A107U C131U
U7G C14G A52C U55C G80A G86U C87A
U7G C14U A23G G58A C75A C87G C99G
U7G C14U A28U A30C C32A A47C G58C C85U A107U
U7G C27G U44A C87A
U7G C27U G48C G59C C76U C79A G83U C93A
U7G C32U G74C G88A G94C G128A G140U
U7G C32U G80C U82G
U7G C35A U53A G58C A73C G94U C125G G126A
U7G C54U A113U C129G
U7G C54U U55A G65A A107U
U7G C57G A60U C69A G83A C87G C103G A107U G133C A142G
U7G C57U G59C G88A C93A A115C
U7G C69A U109C U130G A137U
U7G C72A C87G A97G A120G
U7G C76U C93A
U7G C85G
U7G C93G U139A
U7G C95U C125U G140C C149A
U7G C96U C129U A137G
U7G G11C A37C C72U G80C A97G U144C
U7G G11C G25A C79A C93A U146C
U7G G11C G46A C87A A120U
U7G G34A U55G G68C
U7G G50A A66C G83A C85A
U7G G50U C87A C105U U148A
U7G G58U G94U A121U C149G
U7G U9G A22G A24U G50A C95A G117C
U7G U15A G67C G83A
U7G U15G U56G C93A A115C U130G
U7G U44A
U7G U53A A97U A106C A122U U144A
U7G U53A C75U C131U
U7G U53A U56A G88A
U7G U55A U56A A66C G68U G94A C105U A113U U135G
C8A A12C A21U U78C C85G A89G C105G G141A
C8A A12C G42A G50C G83A U90C C96U G141U A147C
C8A A12G A41C A47G U53A G143U U151C
C8A A12G A91U U148G

Polymerase ribozyme fitness (log ratio), -3.81:
U7G G48A G59A A60G A97G

Polymerase ribozyme fitness (log ratio), -3.41:
U7G G141C

Polymerase ribozyme fitness (log ratio), -3.77:
U7C A16U G92C C116G
